Source: PubChem BioAssay AID504832 (National Center for Advancing Translational Sciences (NCATS), 2011)
Out of some 310,000 compounds screened, about 18,000 (5.8%) were called active. The shares of active, inactive and inconclusive entries below differ from those in the screen. The call rests on the fitted dose curve; in most records, active means well fitted inhibition curve with a large enough effect; inconclusive means small, poorly fitted or top-dose-only effect, or another doubt; inactive means no such curve, though single readings can be large or run the other way. No potency is given beside an inconclusive call; the fits are too rough.

assay: Primary qHTS for delayed death inhibitors of the malarial parasite plastid, 48 hour incubation; conditions: P. falciparum luciferase growth in erythrocytes; series mostly up to 28.7 µM; activity change, negative = inhibition: at the top concentration
Outline: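 Here the parasites carry a stable luciferase gene and grow inside erythrocytes in Albumax-based RPMI medium with compound for one erythrocytic cycle. Activity is scored as loss of luminescent signal.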
On the % scale 0 is the no-effect control and ±100 the full control effect; potency means the concentration at half of the fitted maximal effect; tags describe the fitted curve by direction and shape.

Row | Structure (SMILES) | Potency | activity change, negative = inhibition
1 | CCN(Cc1cccc(OC)c1)CC1CCCN(CCc2cccc(OC)c2)C1 (configuration not stated) | inconclusive [inhibitor, single point] | –
2 | CCOC(=O)c1ccc(-c2ccc(C(=O)Nc3cccnc3)o2)cc1 | active: 2.62 µM | –
3 | CC(C)(C)C1C=C(Sc2ccccc2)C(=O)O1 (configuration not stated) | – | inactive: -7.68%
4 | O=C(NNC(=O)c1ccc(-c2ccccc2)cc1)Nc1ccc(F)cc1F | – | inactive: 15.5%
5 | CCNC(=O)c1c(O)c2ccccc2[nH]c1=O | inconclusive [inhibitor, single point] | –
6 | NC(=O)c1ccc(NC(=O)COC(=O)c2c3c(nc4ccccc24)/C(=C\c2ccc4c(c2)OCO4)CCC3)cc1 | inconclusive [inhibitor, single point] | –
7 | C=CCn1c(C)nnc1SCC(=O)Nc1ccccc1C(=O)NC1CC1 | inconclusive [inhibitor, single point] | –
8 | O=[N+]([O-])c1nn(-c2ccc3c(c2)OCCO3)n(O)c1=Nc1ccccc1 | inconclusive [inhibitor, single point] | –
9 | Cc1ccc(C)c(N(CC(=O)Nc2ccc(-c3nc4ccc(C)cc4s3)cc2)S(C)(=O)=O)c1 | inconclusive [inhibitor, single point] | –
10 | CCOCCOC(=O)c1ccc(NC(=O)c2cc(OC)c(OC)c(OC)c2Br)cc1 | – | inactive: -3.78%
11 | Cc1cccnc1CC(C)NC(=O)c1cc(COc2cncc(Cl)c2)on1 (configuration not stated) | inconclusive [inhibitor, single point] | –
12 | CC(=O)c1c(C)[nH]c(C(=O)Nc2ccccn2)c1C | – | inactive: 174%
13 | O=C(Cc1ccc([N+](=O)[O-])cc1)Nc1ccc2c(c1)C(=O)NC2=O | – | inactive: 14%
14 | O=C(COc1ccc(F)cc1Cl)Nc1cccc(S(=O)(=O)N2CCCC2)c1 | inconclusive [inhibitor, single point] | –
15 | CC1CCN(S(=O)(=O)N2CCC(C(=O)NC3CCCC3)CC2)CC1 | inconclusive [inhibitor, partial curve] | –
16 | COc1ccc(/C(C)=N/Nc2ccc(C(=O)O)cc2)cc1OC | – | inactive: 256%
17 | COCCN(CC(=O)Nc1ccccc1)S(=O)(=O)c1ccc(S(=O)(=O)N2CCCC2)cc1 | inconclusive [inhibitor, partial curve] | –
18 | Cn1c(=O)oc2cc(S(=O)(=O)N3CCc4ccccc43)ccc21 | inconclusive [inhibitor, partial curve] | –
19 | COc1ccc(Nc2nn3c(=O)c4ccccc4nc3s2)cc1 | inconclusive [activator, full curve, poor fit] | –
20 | Nc1ccc(-c2ncc(-c3ccccc3)o2)cc1 | active: 9.28 µM | –
21 | C=CCc1c(C)nc(-c2ccccc2)nc1Nc1ccc(O)cc1 | – | inactive: 11.9%
22 | Cc1cc(C)n2nc(SCCCC(=O)c3ccc(F)cc3)nc2n1 | – | inactive: -26.2%
23 | CCC(C)(C)C1CCC2(CC1)NC(=O)N(CC(=O)NC(C)CCc1ccccc1)C2=O (configuration not stated) | inconclusive [inhibitor, single point] | –
24 | C/C(CC(=O)NCc1ccccc1)=N\NC(N)=S | inconclusive [inhibitor, single point] | –

Row | Structure (SMILES) | Potency | activity change, negative = inhibition
25 | COc1ccccc1N1Cc2ccccc2C1 | active: 13.1 µM | –
26 | COc1ccccc1CNc1nc(-c2cc(C)n(C)c2C)cs1 | inconclusive [inhibitor, partial curve, poor fit] | –
27 | CC1CN(c2nc(Nc3ccccc3)nc(N)c2[N+](=O)[O-])CC(C)O1 (configuration not stated) | inconclusive [inhibitor, single point] | –
28 | CCc1c(C)sc2nc3c(C(=O)N4CCOCC4)cc(C(=O)c4cc(F)ccc4O)cn3c(=O)c12 | inconclusive [inhibitor, full curve] | –
29 | Cn1c(CNC(=O)Nc2cccc(Cl)c2)nnc1SCc1ccccc1 | inconclusive [inhibitor, single point] | –
30 | Cc1cc(C)cc(NC(=S)N(CCN(C)C)Cc2cccs2)c1 | inconclusive [inhibitor, single point] | –
31 | CCOc1cc(-c2nnc(NC(=O)C3=COCCO3)o2)cc(OCC)c1OCC | inconclusive [inhibitor, single point] | –
32 | COc1cc(O)c(C(CCN2CCCC(C)C2)c2ccc3c(c2)OCO3)c(OC)c1 (configuration not stated) | active: 0.657 µM | –
33 | Cc1cc2c3c(c1)C1(C(=O)N3C(C)(C)CC2C)C(C#N)=C(N)Oc2n[nH]c(C)c21 (configuration not stated) | active: 11.7 µM | –
34 | CC(=O)CCC(=O)O | – | inactive: -2.21%
35 | CCOC(=O)c1cnn(-c2nc(CC)nc3sc4c(c23)CCC4)c1N | inconclusive [inhibitor, single point] | –
36 | Fc1ccc(-c2nnc(N3CCOCC3)c3ccccc23)cc1F | inconclusive [inhibitor, single point] | –
37 | O=C1Nc2ccc(Br)cc2C1(O)c1ccccc1 (configuration not stated) | active: 6.57 µM | –
38 | O=C(CN1C(=O)c2cccc3cccc1c23)Nc1ccc(S(=O)(=O)Nc2nccs2)cc1 | inconclusive [inhibitor, partial curve] | –
39 | Cc1cccc(NC2=C/C(=N/S(=O)(=O)c3cccs3)c3ccccc3C2=O)c1 | active: 0.522 µM | –
40 | Fc1ccc(Sc2ccccc2CNC2=NCCN2)cc1 | active: 5.86 µM | –
41 | CCOc1ccc(S(=O)(=O)N(C)c2ccc(OCC(=O)NCC3CCCO3)cc2)cc1 (configuration not stated) | inconclusive [inhibitor, single point] | –
42 | CCN1CCN(c2ccc(S(=O)(=O)N3CCCCC3)cc2NC(=O)c2sccc2C)CC1 | inconclusive [inhibitor, single point] | –
43 | O=C(CSc1nc2ccccc2s1)NC1CCS(=O)(=O)C1 (configuration not stated) | – | inactive: 2.5%
44 | Cc1nc(Oc2ccc(S(=O)(=O)N3CCOCC3)cc2Cl)c2c3c(sc2n1)CCCC3 | inconclusive [inhibitor, single point] | –
45 | CCOc1ccccc1-n1c(SCC(=O)N(C(C)C)C(C)C)nnc1-c1cccnc1 | – | inactive: -26.6%
46 | CCc1ccc(S(=O)(=O)Nc2ccc(-c3ccc4nnc(C)n4n3)cc2)s1 | inconclusive [inhibitor, single point] | –
47 | CN1CCC(=O)N([C@H](CSc2ccc(Br)cc2)Cc2ccccc2)CC1 | active: 9.28 µM | –
48 | COc1ccc(OC)c(C2CC(c3ccccc3)=NN2C(=S)Nc2ccccc2)c1 (configuration not stated) | active: 2.33 µM | –

Row | Structure (SMILES) | Potency | activity change, negative = inhibition
49 | CN(C)CCNc1nc2sc3c(c2c(=O)n1Cc1ccccc1)CCCCC3 | inconclusive [inhibitor, single point] | –
50 | CCCn1nc(NC(=O)c2ccncc2)c2cc3ccccc3nc21 | inconclusive [inhibitor, single point] | –
51 | COc1ccccc1OCc1cc(C(=O)NCc2ccc(N3CCCC3=O)cc2)no1 | inconclusive [inhibitor, partial curve] | –
52 | CN1[C@@H]2CC[C@H]1CC(OC(=O)C1C=Nc3ccccc31)C2 (some centres not stated) | inconclusive [inhibitor, single point] | –
53 | Cc1ccc(CNC(=O)CSCc2ccccc2)cc1 | – | inactive: 42.2%
54 | N#Cc1c(/N=C/N2CCCC2)oc(-c2ccccc2)c1-c1ccccc1 | active: 4.65 µM | –
55 | COc1ccccc1-c1cc(C(=O)Nc2c(F)cc(F)cc2Br)no1 | inconclusive [inhibitor, partial curve, poor fit] | –
56 | CCCCOC(=O)Nc1ccc(C(N)=O)cc1 | – | inactive: 106%
57 | COc1ccc(-c2nnn(CC(=O)N(CCCN3CCOCC3)C(C(=O)NC3CCCC3)c3ccco3)n2)cc1 (configuration not stated) | inconclusive [inhibitor, partial curve, poor fit] | –
58 | CCOc1ccc(C2C=C(c3ccccc3)Nc3ncnn32)cc1 (configuration not stated) | inconclusive [inhibitor, single point] | –
59 | COc1ccc(NC(=O)c2cn(-c3ccccc3)nc2-c2cc3ccccc3o2)cc1 | inconclusive [inhibitor, single point] | –
60 | CCOCc1cc(CN2CCC(CCC(=O)NC3CC3)CC2)ccc1OC | – | inactive: 3.02%
61 | Brc1ccc(-c2cnnc(N3CCCC3)n2)cc1 | active: 3.29 µM | –
62 | OCC1CCCCN1CC(O)COC(c1ccc(F)cc1)c1ccc(F)cc1 (configuration not stated) | active: 9.28 µM | –
63 | CCOC(=O)C1(CCOc2ccccc2)CCN(Cc2cc(OC)cc(OC)c2)CC1 | inconclusive [inhibitor, partial curve, poor fit] | –
64 | Cc1cc(C)c(C(=O)N2CCCC(CNS(=O)(=O)c3cccs3)C2)o1 (configuration not stated) | – | inactive: 2.64%
65 | COc1ccc(CCN(C)C(=O)Cc2ccc(-c3ccccc3)cc2)cc1OC | inconclusive [inhibitor, partial curve] | –
66 | COc1ccc(N(CC(=O)N2CCN(c3ccc(Cl)cc3)CC2)S(=O)(=O)c2c(C)n[nH]c2C)cc1 | inconclusive [inhibitor, partial curve] | –
67 | COc1cccc(CNC(=O)Cn2nc(-c3ccc(Cl)cc3)ccc2=O)c1 | inconclusive [inhibitor, partial curve, poor fit] | –
68 | COc1ccc(-c2cc(C)nc(SCC(=O)c3cccc([N+](=O)[O-])c3)n2)cc1 | inconclusive [inhibitor, single point] | –
69 | Cc1cc(C(=O)COC(=O)c2ccc([N+](=O)[O-])o2)c(C)n1CC1CCCO1 (configuration not stated) | – | inactive: 47.2%
70 | O=C(Cn1nc(C(=O)O)c2ccccc2c1=O)Nc1cc(Cl)cc(Cl)c1 | – | inactive: 3.08%
71 | NNc1n[nH]c(=S)n1N | inconclusive [inhibitor, full curve] | –
72 | COc1ccc2[nH]c(=O)c(CN(Cc3cccs3)C(=S)NCC3CCCO3)cc2c1 (configuration not stated) | inconclusive [inhibitor, single point] | –
